Some of the results follow. Many values rest on one well or one pass, so single values are uncertain.
These compounds were tested on SUM-149 (assay: cell viability relative to vehicle (% of vehicle); basal-like triple-negative breast cancer lines; higher = less cytotoxic). Details: 10 µM; 72 h.
Work on `C[N+](C)(CCOc1ccccc1)Cc1ccccc1.O=C(O)c1cc2ccccc2cc1[O-]` [Bephenium Hydroxynaphthoate] yielded a cell viability of 177.
Compound `CCN(CC)CCOC(=O)C1(C2CCCCC2)CCCCC1.Cl` [Dicyclomine HCl] has a cell viability of 96.7.
With `CN(C)CCOC(c1ccccc1)c1ccccc1.Cl` [Diphenhydramine HCl] the cell viability was 96.6.
With `CCOc1ccc2ccccc2c1C(=O)NC1C(=O)N2C1SC(C)(C)C2C(=O)[O-].O.[Na+]` (stereo not given) [Nafcillin Sodium] the cell viability was 122.
Work on `Cc1ccc(-n2nc(C(C)(C)C)cc2NC(=O)Nc2ccc(OCCN3CCOCC3)c3ccccc23)cc1` [BIRB 796 (Doramapimod)] yielded a cell viability of 86.8.
`C#CC1(O)CCC2C3CCc4cc(OC)ccc4C3CCC21C` (stereo not given) [Mestranol] showed a cell viability of 106.
Work on `CC(=O)NC1C(N=C(N)N)C=C(C(=O)O)OC1C(O)C(O)CO` (stereo not given) [Zanamivir] yielded a cell viability of 93.
`CS(=O)(=O)OCCCCOS(C)(=O)=O` [Busulfan] gave a cell viability of 121.
In the case of `Nc1nc(F)nc2c1ncn2C1OC(COP(=O)(O)O)C(O)C1O` (stereo not given) [Fludarabine Phosphate (Fludara)], the cell viability was 150.
In the case of `OCCOc1ccc(C(=C(CCCl)c2ccccc2)c2ccccc2)cc1` [Ospemifene], the cell viability was 113.
`O=C(c1ccc(F)c(F)c1Nc1ccc(I)cc1F)N1CC(O)(C2CCCCN2)C1` (stereo not given) [Cobimetinib] was tested, and the cell viability was 48.4.
For `CC1CC2C3CC(F)C4=CC(=O)C=CC4(C)C3(F)C(O)CC2(C)C1(O)C(=O)CO` (stereo not given) [Flumethasone], the cell viability was 186.
Compound `Clc1ccc(COC(Cn2ccnc2)c2ccc(Cl)cc2Cl)cc1.O=[N+]([O-])O` (stereo not given) [Econazole nitrate] has a cell viability of 138.
Work on `CC(C)Cc1ccc(C(C)C(=O)O)cc1.NCCCCC(N)C(=O)O` (stereo not given) [Ibuprofen Lysine] yielded a cell viability of 101.
`Cc1cc(C#N)cc(C)c1Oc1nc(Nc2ccc(C#N)cc2)nc(N)c1Br` [Etravirine (TMC125)] showed a cell viability of 81.7.
`CC1(C)SC2C(NC(=O)Cc3ccccc3)C(=O)N2C1C(=O)[O-].[Na+]` (stereo not given) [Penicillin G Sodium] showed a cell viability of 89.8.
Work on `CC(CN1CC(=O)NC(=O)C1)N1CC(=O)NC(=O)C1.Cl` (stereo not given) [Dexrazoxane HCl (ICRF-187, ADR-529)] yielded a cell viability of 94.
`CC[C@H](C)[C@@H]1NC(=O)[C@H](Cc2ccc(O)cc2)NC(=O)[C@@H](N)CSSC[C@@H](C(=O)N2CCC[C@H]2C(=O)N[C@@H](CC(C)C)C(=O)NCC(N)=O)NC(=O)[C@H](CC(N)=O)NC(=O)[C@H](CCC(N)=O)NC1=O` [Oxytocin] showed a cell viability of 91.1.
For `CCOc1cc(C(CS(C)(=O)=O)N2C(=O)c3cccc(NC(C)=O)c3C2=O)ccc1OC` (stereo not given), the cell viability was 122.
`CCCCOc1ccc(C(=O)CCN2CCCCC2)cc1.Cl` [Dyclonine HCl] was tested, and the cell viability was 123.
`CCCNC(C)C(=O)Nc1c(C)csc1C(=O)OC.Cl` (stereo not given) [Articaine HCl] gave a cell viability of 107.
With `Cl.NC(N)=NC(N)=NCCc1ccccc1` [Phenformin HCl] the cell viability was 116.
In the case of `C=CC(=O)Nc1cc(Nc2nccc(-c3cn(C)c4ccccc34)n2)c(OC)cc1N(C)CCN(C)C`, the cell viability was 32.1.
For `CC(Oc1cc(-c2cnn(C3CCNCC3)c2)cnc1N)c1c(Cl)ccc(F)c1Cl` [(R)-Crizotinib], the cell viability was 35.3.
`Cc1cc(C)c2c(c1)C(N(Cc1cc(C(F)(F)F)cc(C(F)(F)F)c1)c1nnn(C)n1)CCCN2CC1CCC(C(=O)O)CC1` (stereo not given) showed a cell viability of 115.
`C#CCNC1CCc2ccccc21.CS(=O)(=O)O` (stereo not given) [Rasagiline Mesylate] was tested, and the cell viability was 83.3.
`CC(=O)Oc1cc2c(s1)CCN(C(C(=O)C1CC1)c1ccccc1F)C2.Cl` (stereo not given) [Prasugrel hydrochloride] was tested, and the cell viability was 109.
Compound `CC(C)(C)NC(=O)C1CCC2C3CCC4NC(=O)C=CC4(C)C3CCC12C` (stereo not given) [Finasteride] has a cell viability of 120.
With `CCn1cc(C(=O)O)c(=O)c2cc(F)c(N3CCN(C)CC3)cc21.CS(=O)(=O)O` [Pefloxacin Mesylate] the cell viability was 117.
For `CC1(C)CCC(c2ccc(Cl)cc2)=C(CN2CCN(c3ccc(C(=O)NS(=O)(=O)c4ccc(NC(CCN5CCOCC5)CSc5ccccc5)c(S(=O)(=O)C(F)(F)F)c4)cc3)CC2)C1` (stereo not given) [ABT-263 (Navitoclax)], the cell viability was 47.2.
`CC12CCC3c4ccc(OC(=O)c5ccccc5)cc4CCC3C1CCC2O` (stereo not given) [Estradiol Benzoate] gave a cell viability of 104.
Work on `COc1cccc(-c2ccc(NC(=O)C3=C(C(=O)O)CCC3)c(F)c2)c1` [Vidofludimus] yielded a cell viability of 116.
In the case of `COc1nc2ccc(Br)cc2cc1[C@@H](c1ccccc1)[C@@](O)(CCN(C)C)c1cccc2ccccc12` [Bedaquiline], the cell viability was 109.
For `Nc1nc(N)c2nc(-c3ccccc3)c(N)nc2n1` [Triamterene], the cell viability was 126.
With `CCC1(O)CC2CN(CCc3c([nH]c4ccccc34)C(C(=O)OC)(c3cc4c(cc3OC)N(C)C3C(O)(C(=O)OC)C(OC(C)=O)C5(CC)C=CCN6CCC43C65)C2)C1` (stereo not given) [vinblastine] the cell viability was 121.
For `CNC(=O)C(NC(=O)C(CC(C)C)C(O)C(=O)NO)C(C)(C)C` (stereo not given) [Marimastat], the cell viability was 80.5.
`CC12CCC(=O)C=C1C1CC1C1C2CCC2(C)C1C1CC1C21CCC(=O)O1` (stereo not given) [Drospirenone] gave a cell viability of 103.
`CCC1OC(=O)C(C)C(OC2CC(C)(OC)C(O)C(C)O2)C(C)C(OC2OC(C)CC(N(C)C)C2O)C(C)(O)CC(C)CN(C)C(C)C(O)C1(C)O.O.O` (stereo not given) [Azithromycin Dihydrate] showed a cell viability of 114.
`NC(=O)c1ccc(I)c([N+](=O)[O-])c1` [Iniparib (BSI-201)] was tested, and the cell viability was 96.4.
`COc1cc2nc(N(C)CCCNC(=O)C3CCCO3)nc(N)c2cc1OC.Cl` (stereo not given) [Alfuzosin HCl] showed a cell viability of 104.
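Note: stably firefly luciferase-GFP labeled cells in 96-well plates, viability read as luciferase photon flux after d-luciferin addition, treated wells normalized to vehicle wells, single-dose high-throughput screen.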
